Assay results taken from paper PMC11549141.
Results are given in words; binding and its absence hold for the method and conditions named. For part of these data: In cells and extracts the contact can be indirect. Some binding calls cover weakened binding; strength is not graded here. For part of these data: Sequences can lack the tags named with a protein.

T1: bHLH089 fused with the GAL4 DNA binding domain (rice) (UniProt Q84T08)
T1 sequence: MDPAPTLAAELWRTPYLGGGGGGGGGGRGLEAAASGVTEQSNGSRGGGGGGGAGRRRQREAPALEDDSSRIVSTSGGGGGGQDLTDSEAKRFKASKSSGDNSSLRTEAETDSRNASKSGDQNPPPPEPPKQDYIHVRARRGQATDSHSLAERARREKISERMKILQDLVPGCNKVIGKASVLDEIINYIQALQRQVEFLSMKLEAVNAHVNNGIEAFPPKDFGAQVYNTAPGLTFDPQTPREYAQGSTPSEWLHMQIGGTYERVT

T2: PCF1 fused with the GAL4 DNA binding domain (rice) (UniProt O23875)
T2 sequence: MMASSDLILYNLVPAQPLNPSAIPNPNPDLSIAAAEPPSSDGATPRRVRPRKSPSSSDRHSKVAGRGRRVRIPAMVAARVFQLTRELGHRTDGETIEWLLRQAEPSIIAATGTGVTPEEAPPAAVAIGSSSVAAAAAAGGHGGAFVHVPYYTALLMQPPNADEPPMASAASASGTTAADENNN

T3: bHLH094 fused with the GAL4 DNA binding domain (rice) (UniProt Q69WS3)
T3 sequence: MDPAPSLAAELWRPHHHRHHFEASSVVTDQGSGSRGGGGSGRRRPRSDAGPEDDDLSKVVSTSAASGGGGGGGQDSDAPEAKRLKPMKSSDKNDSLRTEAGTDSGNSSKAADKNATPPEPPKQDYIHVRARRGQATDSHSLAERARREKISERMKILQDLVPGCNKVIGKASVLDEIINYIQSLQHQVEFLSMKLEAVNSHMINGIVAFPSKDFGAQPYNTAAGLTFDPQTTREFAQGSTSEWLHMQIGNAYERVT

T4: OSH1 fused with the GAL4 DNA binding domain (rice) (UniProt P46609)
T4 sequence: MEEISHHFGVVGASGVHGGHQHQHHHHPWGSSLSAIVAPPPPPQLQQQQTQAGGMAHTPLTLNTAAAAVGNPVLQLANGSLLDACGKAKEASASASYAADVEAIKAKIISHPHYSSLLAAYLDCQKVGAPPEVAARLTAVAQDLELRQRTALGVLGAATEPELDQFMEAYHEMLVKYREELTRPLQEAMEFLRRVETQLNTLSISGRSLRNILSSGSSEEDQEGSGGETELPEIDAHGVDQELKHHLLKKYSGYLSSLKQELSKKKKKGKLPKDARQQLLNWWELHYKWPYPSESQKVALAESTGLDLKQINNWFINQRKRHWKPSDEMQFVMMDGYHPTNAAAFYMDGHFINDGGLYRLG

T5: YAB4 fused with the GAL4 DNA binding domain (rice) (UniProt Q6H668)
T5 sequence: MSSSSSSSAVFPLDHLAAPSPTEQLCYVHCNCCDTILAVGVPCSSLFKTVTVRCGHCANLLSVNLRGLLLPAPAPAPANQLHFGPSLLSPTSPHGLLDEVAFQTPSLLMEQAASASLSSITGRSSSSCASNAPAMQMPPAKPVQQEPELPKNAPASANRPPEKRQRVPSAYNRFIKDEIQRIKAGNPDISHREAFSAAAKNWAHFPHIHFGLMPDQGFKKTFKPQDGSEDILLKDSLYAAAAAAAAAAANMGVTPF

T6: bZIP23 fused with the GAL4 DNA binding domain (rice) (UniProt Q6Z312)
T6 sequence: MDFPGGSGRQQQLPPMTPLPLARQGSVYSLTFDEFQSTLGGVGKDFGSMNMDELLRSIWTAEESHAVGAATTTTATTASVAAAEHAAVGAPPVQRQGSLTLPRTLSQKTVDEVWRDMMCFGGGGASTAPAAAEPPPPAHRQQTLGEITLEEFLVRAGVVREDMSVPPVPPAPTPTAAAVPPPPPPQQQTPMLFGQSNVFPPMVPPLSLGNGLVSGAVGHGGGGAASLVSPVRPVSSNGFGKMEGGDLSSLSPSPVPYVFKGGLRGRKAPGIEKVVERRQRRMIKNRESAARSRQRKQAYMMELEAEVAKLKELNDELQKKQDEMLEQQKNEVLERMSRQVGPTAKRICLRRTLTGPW

T7: PCF1 in YFC43 (BiFC) (rice) (UniProt O23875)
T7 sequence: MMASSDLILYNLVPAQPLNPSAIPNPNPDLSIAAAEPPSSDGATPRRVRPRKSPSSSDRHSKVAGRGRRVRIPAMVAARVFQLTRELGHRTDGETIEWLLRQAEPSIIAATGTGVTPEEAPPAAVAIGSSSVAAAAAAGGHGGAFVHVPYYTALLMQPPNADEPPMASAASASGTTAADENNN

T8: bZIP23 in YFC43 (BiFC) (rice) (UniProt Q6Z312)
T8 sequence: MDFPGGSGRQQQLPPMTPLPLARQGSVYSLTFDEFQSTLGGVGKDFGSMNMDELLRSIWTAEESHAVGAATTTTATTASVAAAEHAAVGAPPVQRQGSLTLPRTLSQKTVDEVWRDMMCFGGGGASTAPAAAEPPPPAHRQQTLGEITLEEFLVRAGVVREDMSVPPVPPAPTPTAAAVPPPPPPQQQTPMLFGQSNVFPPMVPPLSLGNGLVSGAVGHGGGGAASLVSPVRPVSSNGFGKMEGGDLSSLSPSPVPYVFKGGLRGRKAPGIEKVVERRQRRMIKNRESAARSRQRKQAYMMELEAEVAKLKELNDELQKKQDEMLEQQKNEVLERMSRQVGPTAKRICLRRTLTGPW

T9: bHLH089 in YFC43 (BiFC) (rice) (UniProt Q84T08)
T9 sequence: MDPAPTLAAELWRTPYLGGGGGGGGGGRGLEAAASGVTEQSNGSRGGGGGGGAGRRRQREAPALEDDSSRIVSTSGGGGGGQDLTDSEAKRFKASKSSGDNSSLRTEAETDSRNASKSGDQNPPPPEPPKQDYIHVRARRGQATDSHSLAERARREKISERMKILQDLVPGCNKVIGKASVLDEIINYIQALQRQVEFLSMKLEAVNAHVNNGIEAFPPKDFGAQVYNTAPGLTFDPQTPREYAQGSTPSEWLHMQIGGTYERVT

T10: OSH1 in YFC43 (BiFC) (rice) (UniProt P46609)
T10 sequence: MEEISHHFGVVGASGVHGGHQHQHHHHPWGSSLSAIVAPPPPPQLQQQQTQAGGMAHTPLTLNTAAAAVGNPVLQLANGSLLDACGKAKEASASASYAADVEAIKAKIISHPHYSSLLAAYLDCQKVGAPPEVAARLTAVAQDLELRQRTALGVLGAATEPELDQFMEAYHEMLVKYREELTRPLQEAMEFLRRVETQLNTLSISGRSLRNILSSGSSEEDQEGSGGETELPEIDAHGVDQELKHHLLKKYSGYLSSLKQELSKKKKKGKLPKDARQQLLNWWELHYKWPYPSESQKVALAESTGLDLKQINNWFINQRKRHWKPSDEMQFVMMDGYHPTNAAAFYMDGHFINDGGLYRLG

T11: bHLH094 in YFC43 (BiFC) (rice) (UniProt Q69WS3)
T11 sequence: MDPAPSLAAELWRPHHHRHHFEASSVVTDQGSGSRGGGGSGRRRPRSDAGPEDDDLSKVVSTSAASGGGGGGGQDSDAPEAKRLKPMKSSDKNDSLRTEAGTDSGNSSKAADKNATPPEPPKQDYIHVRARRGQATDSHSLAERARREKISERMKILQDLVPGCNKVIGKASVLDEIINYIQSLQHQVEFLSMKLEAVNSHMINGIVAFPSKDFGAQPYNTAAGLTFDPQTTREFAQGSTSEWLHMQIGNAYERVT

T12: YAB4 in YFC43 (BiFC) (rice) (UniProt Q6H668)
T12 sequence: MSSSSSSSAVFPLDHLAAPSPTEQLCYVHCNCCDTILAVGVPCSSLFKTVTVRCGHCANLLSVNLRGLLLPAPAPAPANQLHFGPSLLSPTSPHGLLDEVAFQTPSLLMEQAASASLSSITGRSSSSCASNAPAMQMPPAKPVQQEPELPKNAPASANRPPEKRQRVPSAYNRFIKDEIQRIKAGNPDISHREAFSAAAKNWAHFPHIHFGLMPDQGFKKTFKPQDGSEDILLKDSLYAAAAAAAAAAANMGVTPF


Assays:
[1] = biological target: T1, bHLH089 fused with the GAL4 DNA binding domain (rice); assay: two-hybrid; SLR1 forms in pGADT7 (GAL4 AD), transcription factors in pGBKT7 (GAL4 BD); S. cerevisiae Y2HGold; screening on SD/-Leu/-Trp/-Ade/-His; three individual colonies
[2] = biological target: T2, PCF1 fused with the GAL4 DNA binding domain (rice); assay: as above
[3] = biological target: T3, bHLH094 fused with the GAL4 DNA binding domain (rice); assay: as above
[4] = biological target: T4, OSH1 fused with the GAL4 DNA binding domain (rice); assay: as above
[5] = biological target: T5, YAB4 fused with the GAL4 DNA binding domain (rice); assay: as above
[6] = biological target: T6, bZIP23 fused with the GAL4 DNA binding domain (rice); assay: as above
[7] = biological target: T7, PCF1 in YFC43 (BiFC) (rice); assay: split reporter; BiFC: SLR1 forms in YFN43, transcription factors in YFC43; co-infiltrated Nicotiana benthamiana leaves with P19; fluorescence microscopy 48-72 h after infiltration
[8] = biological target: T8, bZIP23 in YFC43 (BiFC) (rice); assay: as above
[9] = biological target: T9, bHLH089 in YFC43 (BiFC) (rice); assay: as above
[10] = biological target: T10, OSH1 in YFC43 (BiFC) (rice); assay: as above
[11] = biological target: T11, bHLH094 in YFC43 (BiFC) (rice); assay: as above
[12] = biological target: T12, YAB4 in YFC43 (BiFC) (rice); assay: as above

| binding [1] | binding [2] | binding [3] | binding [4] | binding [5] | binding [6] | binding [7] | binding [8] | binding [9] | binding [10] | binding [11] | binding [12] | Binder |
| --- | --- | --- | --- | --- | --- | --- | --- | --- | --- | --- | --- | --- |
| binds | no binding | binds | binds | binds | binds | – | – | – | – | – | – | SLENDER RICE1 (SLR1) fused with the GAL4 activation domain (protein, UniProt Q7G7J6 1-625) MKREYQEAGGSSGGGSSADMGSCKDKVMAGAAGEEEDVDELLAALGYKVRSSDMADVAQKLEQLEMAMGMGGVSAPGAADDGFVSHLATDTVHYNPSDLSSWVESMLSELNAPLPPIPPAPPAARHASTSSTVTGGGGSGFFELPAAADSSSSTYALRPISLPVVATADPSAADSARDTKRMRTGGGSTSSSSSSSSSLGGGASRGSVVEAAPPATQGAAAANAPAVPVVVVDTQEAGIRLVHALLACAEAVQQENFAAAEALVKQIPTLAASQGGAMRKVAAYFGEALARRVYRFRPADSTLLDAAFADLLHAHFYESCPYLKFAHFTANQAILEAFAGCHRVHVVDFGIKQGMQWPALLQALALRPGGPPSFRLTGVGPPQPDETDALQQVGWKLAQFAHTIRVDFQYRGLVAATLADLEPFMLQPEGEADANEEPEVIAVNSVFELHRLLAQPGALEKVLGTVHAVRPRIVTVVEQEANHNSGSFLDRFTESLHYYSTMFDSLEGGSSGQAELSPPAAGGGGGTDQVMSEVYLGRQICNVVACEGAERTERHETLGQWRNRLGRAGFEPVHLGSNAYKQASTLLALFAGGDGYRVEEKEGCLTLGWHTRPLIATSAWRVAAA |
| – | – | – | – | – | – | no binding | binds | binds | binds | binds | binds | SLENDER RICE1 (SLR1) in YFN43 (BiFC) (protein, UniProt Q7G7J6 1-625) MKREYQEAGGSSGGGSSADMGSCKDKVMAGAAGEEEDVDELLAALGYKVRSSDMADVAQKLEQLEMAMGMGGVSAPGAADDGFVSHLATDTVHYNPSDLSSWVESMLSELNAPLPPIPPAPPAARHASTSSTVTGGGGSGFFELPAAADSSSSTYALRPISLPVVATADPSAADSARDTKRMRTGGGSTSSSSSSSSSLGGGASRGSVVEAAPPATQGAAAANAPAVPVVVVDTQEAGIRLVHALLACAEAVQQENFAAAEALVKQIPTLAASQGGAMRKVAAYFGEALARRVYRFRPADSTLLDAAFADLLHAHFYESCPYLKFAHFTANQAILEAFAGCHRVHVVDFGIKQGMQWPALLQALALRPGGPPSFRLTGVGPPQPDETDALQQVGWKLAQFAHTIRVDFQYRGLVAATLADLEPFMLQPEGEADANEEPEVIAVNSVFELHRLLAQPGALEKVLGTVHAVRPRIVTVVEQEANHNSGSFLDRFTESLHYYSTMFDSLEGGSSGQAELSPPAAGGGGGTDQVMSEVYLGRQICNVVACEGAERTERHETLGQWRNRLGRAGFEPVHLGSNAYKQASTLLALFAGGDGYRVEEKEGCLTLGWHTRPLIATSAWRVAAA |
